# From the supplement of paper PMC9446081
# Out of some 39,000 compounds screened, about 220 (0.56%) showed activity. This is one part of the list.
# System: Escherichia coli K-12 BW25113
# Assay: relative growth (OD600 normalised to plate interquartile mean) (fraction); higher = less growth inhibition, active = 0.2 or less
# Conditions: 50 µM; LB; incubation time: overnight (16-24 h)
# 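Also: static incubation at 37 °C against the wild-type strain, values averaged over two biological replicates.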
row,SMILES,relative growth
1,C[C@H](CO)N1C[C@H](C)[C@@H](CN(C)C(=O)c2ccccc2)OCCCC[C@H](C)Oc2ccc(NC(=O)Nc3ccc4c(c3)OCO4)cc2C1=O,inactive: 0.962
2,C[C@]12C[C@]3(O)O[C@@H](O1)[C@]1(COC(=O)c4ccccc4)[C@H]3C[C@@]12O[C@@H]1O[C@H](CO)[C@@H](O)[C@H](O)[C@H]1O,inactive: 1
3,C[C@H](CO)N1C[C@H](C)[C@H](CN(C)S(=O)(=O)c2cccs2)OCCCC[C@H](C)Oc2ccc(NC(=O)NC3CCCCC3)cc2C1=O,inactive: 1.02
4,CC1(C)SC2C(NC(=O)Cc3ccccc3)C(=O)N2C1C(=O)[O-].[K+] (stereo unspecified),inactive: 0.576
5,O=C(N/N=C/[C@H](O)[C@@H](O)[C@H](O)CO)c1ccccc1O,inactive: 0.986
6,COc1ccc(NC(=O)Nc2cccc3c2O[C@@H](CN(C)C(=O)Nc2ccc(C(F)(F)F)cc2)[C@@H](C)CN([C@H](C)CO)C3=O)cc1,inactive: 0.941
7,C[C@@H]1CCCCO[C@@H](CN(C)Cc2ccc(Cl)c(Cl)c2)[C@@H](C)CN([C@@H](C)CO)C(=O)c2cc(NC(=O)Nc3ccc(F)cc3)ccc2O1,inactive: 1.02
8,CC(C)NC(=O)N(C)C[C@H]1OCc2cnnn2CCCC(=O)N([C@@H](C)CO)C[C@H]1C,inactive: 1.01
9,C[C@@H]1CN([C@H](C)CO)C(=O)c2cc(NC(=O)Nc3ccccc3)ccc2O[C@@H](C)CCCCO[C@H]1CN(C)Cc1ccc2c(c1)OCO2,inactive: 0.962
10,C[C@@H]1CN([C@@H](C)CO)C(=O)c2cc(NC(=O)Cc3ccccc3)ccc2O[C@@H](C)CCCCO[C@H]1CN(C)C(=O)Nc1cccc2ccccc12,inactive: 1.03
11,COCC#Cc1ccc2c(c1)O[C@H](CN(C)Cc1ccc3c(c1)OCO3)[C@@H](C)CN([C@H](C)CO)S2(=O)=O,inactive: 1.03
12,CO[C@@H]1CN(C)C(=O)c2ccc(NC(=O)Nc3ccccc3)cc2OC[C@@H](C)N(C(=O)CN(C)C)C[C@H]1C,inactive: 0.996
13,Cc1noc(C)c1S(=O)(=O)N(C)C[C@H]1Oc2ccc(NC(=O)CCCN(C)C)cc2C(=O)N([C@@H](C)CO)C[C@H]1C,inactive: 0.962
14,O=C(CN1CCOCC1)N[C@@H]1CC[C@@H](CCNC(=O)C2CCC2)O[C@H]1CO,inactive: 1.01
15,C[C@H](CO)N1C[C@H](C)[C@@H](CN(C)Cc2ccc(Oc3ccccc3)cc2)Oc2c(NC(=O)C3CCCCC3)cccc2C1=O,inactive: 1.01
16,CS(=O)(=O)N1CCCN(C(=O)CN2C(=O)COc3ccccc32)CC1,inactive: 0.998
17,C[C@@H]1CN([C@H](C)CO)S(=O)(=O)c2ccc(-c3ccc(C(=O)N(C)C)cc3)cc2O[C@H]1CN(C)C(=O)C1CC1,inactive: 0.988
18,COc1ccc([C@H]2CC=CC[C@@H](C)Oc3ccccc3C(=O)N(C)[C@H](Cc3ccccc3)C(=O)N2)c(OC)c1,inactive: 1.02
19,CS(=O)(=O)N1[C@@H]2c3ccc(-c4ccc(F)cc4)c(=O)n3C[C@H]1[C@H](CO)[C@H]2C(=O)N1CCOCC1,inactive: 0.992
20,Oc1cccc(O)c1O,inactive: 0.878
21,Cc1noc(C)c1S(=O)(=O)N(C)C[C@@H]1OCc2cn(nn2)CCCC(=O)N([C@@H](C)CO)C[C@H]1C,inactive: 1.02

row,SMILES,relative growth
1,Nc1ccc(C(=O)O)c(O)c1,inactive: 0.99
2,COCCNC(=O)C[C@H]1CC[C@@H]2[C@@H](COc3ccc(NS(=O)(=O)c4ccc(Cl)cc4)cc3C(=O)N2C)O1,inactive: 1.01
3,Cc1noc(C)c1NC(=O)N(C)C[C@@H]1Oc2ncc(C#CCC(C)C)cc2C(=O)N([C@H](C)CO)C[C@@H]1C,inactive: 0.975
4,CC(C)NC(=O)N(C)C[C@@H]1Oc2ccc(NC(=O)Nc3ccc4c(c3)OCO4)cc2C(=O)N([C@@H](C)CO)C[C@@H]1C,inactive: 1.03
5,C[C@@H]1CN([C@H](C)CO)C(=O)c2cccc(NC(=O)Nc3ccccc3)c2O[C@@H]1CN(C)S(C)(=O)=O,inactive: 0.964
6,COc1cccc(C#Cc2cnc3c(c2)C(=O)N([C@H](C)CO)C[C@@H](C)[C@@H](CN(C)C(=O)C2CCOCC2)O3)c1,inactive: 1
7,C[C@H](CO)N1C[C@H](C)[C@H](CN(C)C(=O)Cc2cccnc2)Oc2ncc(C#Cc3ccccc3F)cc2C1=O,inactive: 0.979
8,Cc1ccc(S(=O)(=O)N(C)C[C@@H]2Oc3ccc(NS(=O)(=O)c4ccc(F)cc4)cc3CC(=O)N([C@H](C)CO)C[C@H]2C)cc1,inactive: 0.827
9,C[C@H]1CN([C@@H](C)CO)C(=O)c2cccc(NC(=O)Nc3ccc(F)cc3)c2O[C@@H]1CN(C)C(=O)Nc1cccc2ccccc12,inactive: 0.98
10,COC(=O)C[C@@H]1CC[C@H]2[C@@H](COc3ccc(NS(=O)(=O)c4ccccc4Cl)cc3C(=O)N2C)O1,inactive: 1.01
11,CCCCC(O)c1ccccc1 (stereo unspecified),inactive: 0.973
12,C[C@H](CO)N1C[C@H](C)[C@@H](CN(C)C(=O)NC2CCCCC2)Oc2ccc(NS(=O)(=O)c3cn(C)cn3)cc2CC1=O,inactive: 1
13,O=C(C[C@@H]1CC[C@H]2[C@@H](COC[C@H](O)CN2C(=O)Nc2cccc(Cl)c2)O1)NCc1ccccc1F,inactive: 0.957
14,CCCCCCCCCCCCCCCC(=O)OCC(O)C1OC(=O)C(O)=C1O (stereo unspecified),inactive: 0.882
15,COC(=O)[C@@H](N)c1cccc(OC)c1,inactive: 0.992
16,COc1ccc(S(=O)(=O)Nc2ccc3c(c2)C(=O)N([C@@H](C)CO)C[C@H](C)[C@@H](CN(C)S(=O)(=O)c2ccc(F)cc2)O3)cc1,inactive: 1
17,O=C(O)c1nc(-c2cnccn2)no1,inactive: 1.02
18,CC1(C)OC(=O)C(OCC2CC2)=C1c1ccc(S(C)(=O)=O)cc1,inactive: 0.971
19,CCO/C(O)=C1/C(=O)CN(C)C1=O,inactive: 0.962
20,Cc1ccc(S(=O)(=O)Nc2ccc3c(c2)C(=O)N([C@@H](C)CO)C[C@H](C)[C@H](CN(C)Cc2ccc(C(=O)O)cc2)OCCCC[C@@H](C)O3)cc1,inactive: 1
